Experimental data from the supplement of paper PMC11417369.
The list shows a part of the results.

tested on: PfSIP2 AP2 domain 1 (GST-tagged); assay: gcPBM binding intensity (ln(normalized median fluorescence intensity)); higher = stronger DNA binding
Summary of the method: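 Plasmodium falciparum DNA-binding domains carrying a GST tag were expressed in E. coli and applied for 1 h, at about 25 μg on average, to an Agilent 4 × 180k array. The array held primer-extended double-stranded 36-bp intergenic genomic probes together with negative controls, and binding took place in 1× PBS with 1% milk, 0.2 mg/ml BSA, 0.5% salmon testes DNA and 0.03% Triton X-100. An Alexa488 anti-GST antibody detected bound protein, and the array was scanned at 488 nm. Binding intensity is taken as the highest Masliner-normalised natural-log median intensity across replicate spots of either probe orientation.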

Sequence	gcPBM binding intensity (ln)
TATATAAATATTCGTAGTACAATACAATTATAAGTA [XGTACX_site3068]	6.99
TTTATAATTTTAAAATGTACAAGGAGGAAAAATTCT [XGTACX_site422]	7.09
TTATATTTTATATTTACACACATTTATATTTATAAA [CACACA_site203]	6.94
ATAAACATCGGTAGTACACACATTCATGTACTTGAT [CACACA_site3037]	7.32
AATTTGTAAAATAAGGTGCGTATAAAAAATTATATT [GTGCAC_site9676]	9.96
ATTTAATAAAAAAAAAAAATATTGTAGAATATGATG [GTGCAC_negctrl_site195]	6.82
CAAATGGTAAATGAAAGTACAAATTGTTTTGATTAA [XGTACX_site1536]	6.74
ATATACATATTCTTGTGTACATAAAAATTTATATAT [XGTACX_site8726]	7.16
ATATAAATCATTGGTTGTACATATAATATTTTATAA [XGTACX_site925]	7.08
TATATATCTATATATTGTACATATGTTTGTATGTGT [XGTACX_site7420]	7.26
TATTTTTACCCATAAAGTACACATAAATATAAAATA [XGTACX_site177]	7.36
TAATATTTCTTATTTTATATTTGTATATGAATGGAT [XGTACX_negctrl_site278]	6.88
GCTCAATGTTTTACATGTACATATATATATATATAT [XGTACX_site8210]	9.11
TATATATTAGAAGATAGTACATATATATTTATTAAT [XGTACX_site1011]	6.99
TGGTGATCAAAATATACATGCATATGTTCTGTTATT [TGCATGCA_site614]	7.06
TATGATATCTATAATACACACATATACATAAGATCT [CACACA_site6652]	7.03
TTATATAAAACATTAACACACAAAGAAAAAAAATTA [CACACA_site1793]	6.88
TTAATATAACTTTTTGCACACTTAATTTTTTTTTTT [CACACA_site3364]	7.03
AAAACAAATGCTTAAAGTACTTATTATTTTTCTTTT [XGTACX_site6324]	7

Sequence	gcPBM binding intensity (ln)
TTCCTACTATTCAAACGTACAAAATATTTAAATAAT [XGTACX_site700]	7.41
TATTATAAAACATTATGTACATATTCTGAAAAATAG [XGTACX_site6577]	7.07
TATTTCTTATTTATTTTTTAAGGAAATTAAAGATTT [CACACA_negctrl_site258]	6.68
CAAAATAAAAAATTCACACACATATATATATATATA [CACACA_site2088]	9.29
ATAATATAATATAAAACACACATATGTACCTTCTAA [CACACA_site2761]	7.04
CAAGTTCAAAATACAAGGAAGAAACAAAACTTGGCG [GTGCAC_negctrl_site600]	6.9
TAAAAATATCTGTATACACACATATATATATATATA [CACACA_site6042]	9.59
AAAAAAAAAAAAAAAAGTACAAATCTTTATTTATTA [XGTACX_site3305]	7.36
TATTTAGAAATAAATACACACATACATTTTTGTATA [CACACA_site4557]	6.74
GTTTATTTTTTCATTTGTACACATAAATAAATATAT [XGTACX_site7752]	7.47
GGTATATATTCTATCACACATATTTCCATGAAAATA [CACACA_site4728]	7.29
TTAATTATATTATGCACACACAATTGGAAAAAAAAT [CACACA_site1958]	8.42
ACGTTAGGCTTATTTGCACACTTGTATTAAAATTTT [CACACA_site4854]	7.27
AAAAATATGCTTCCATGTACTTAAAAAAAAAATTTA [XGTACX_site3617]	6.81
TCAACTTGATTTATATGTACACATATAAGTAATTAT [XGTACX_site1798]	7.13
TATACAAACTATGATGCACACATATATATATGTATA [CACACA_site8327]	7.48
AAAAAAAAGAAAAAAACACACAATGGAAAAAATGTA [CACACA_site3675]	6.77
TTACATATATTGGGGTGTACATATATTTTCCTTCAC [XGTACX_site6224]	7.48
AAAAAAAAAAAAAAAAGTACACATAATTGTATATGT [XGTACX_site6339]	7.34

Sequence	gcPBM binding intensity (ln)
GTTATATGAACTTATATACACACCATTTTTGTAAAT [CACACA_site695]	6.95
AAATCATATTCTTATTTTATTTTTTTTATTTTTTAT [XGTACX_negctrl_site166]	6.78
TGTAGATATTTTTGGGGTACTTTATAAAGAACTAGT [XGTACX_site5635]	7.28
GAAAAACAAATATATTAACACACAAACATATAAACA [CACACA_site9315]	7.13
AAATATTGTTTTTTATGTACTTATTTTTATTTATTT [XGTACX_site3481]	7.18
ATGAAAAAGTGCTGGATTCTAAAGAAAAAAAAAAAA [CACACA_negctrl_site962]	7
ATAAAATCAACAAATCAGGATGTCACGTAAATATCA [CACACA_negctrl_site1009]	6.85
ATATTTTATATATTTGTGCACAATATTATAATATAT	8.63
ACATATTTATATGTCTGTACAAATATGCAATTTTTT [XGTACX_site5516]	6.99
TTAGATAGATTTGTACGTACTTATTATAACGTATCA [XGTACX_site5067]	7.3
AATTTATAAATAATTAATTTGATAAATTATAAAGGG [GTGCAC_negctrl_site544]	7.02
GGATAATCATACGAAGCATGCTGAATTTCCAAATAA [TGCATGCA_site1013]	6.67
AAAAAAATTAAATGGGGTACAATAAGGGTCAAATAT [XGTACX_site8669]	7.19
TTTTATTATATATATTGTACATATATTTTTATTTTT [XGTACX_site1564]	7.1
AAAAAAAAAAATGGCTGTACATAATATTTAAATAGG [XGTACX_site4286]	7.04
AAAAAAAAAAAAAACACACATACATACATACATATA [CACACA_site4121]	7.22
ATATTTATAACTTGGTGTACTTTGAAAAAAAAAAAA [XGTACX_site5194]	6.97
ATAATTTTTTAGATCACACATATAAATAAATAAATA [CACACA_site5175]	6.95
